{"source": "patent US11618753B2", "about": "(priority 2018, dated 2023)"}
{"tested_on": "MLKL phosphorylation, HT29-L23 human colorectal adenocarcinoma cells", "assay": "cells", "conditions": "read-out: pMLKL HCS Cell Assay (IC50, uM)", "units": {"IC50": "µM"}}
{"smiles": "COc1ccc(-c2cc(C(F)(F)F)c3c(N)ncnn23)cc1C(=O)NCc1nccnc1Cl", "note": "[Example 164, 5-[4-amino-5-(trifluoromethyl)pyrrolo[2,1-f][1,2,4]triazin-7-yl]-N-[(3-chloropyrazin-2-yl)methyl]-2-methoxybenzamide]", "IC50": 0.097}
{"smiles": "COc1ncc(-c2cc(C(F)(F)F)c3c(N)ncnn23)cc1C(=O)NC1CN(Cc2ccc(C(F)(F)F)cc2)CC1F", "note": "(racemic) [Example 216, 5-[4-amino-5-(trifluoromethyl)pyrrolo[2,1-f][1,2,4]triazin-7-yl]-N-(4-fluoro-1-{[4-(trifluoromethyl)phenyl]methyl}pyrrolidin-3-yl)-2-methoxypyridine-3-carboxamide]", "IC50": 0.051}
{"smiles": "COc1ncc(-c2cc(C(F)(F)F)c3c(N)ncnn23)cc1C(=O)NC1CN(CC2CC2(F)F)CC1F", "note": "(racemic) [Example 196, 5-[4-amino-5-(trifluoromethyl)pyrrolo[2,1-f][1,2,4]triazin-7-yl]-N-{1-[(2,2-difluorocyclopropyl)methyl]-4-fluoropyrrolidin-3-yl}-2-methoxypyridine-3-carboxamide]", "IC50": 0.0055}
{"smiles": "Nc1ncnn2c(-c3ccc(Cl)c(C(=O)N[C@@H]4CN(C(=O)C5(F)CC5)C[C@@H]4F)c3)cc(C(F)(F)F)c12", "note": "[Example 934, 5-[4-amino-5-(trifluoromethyl)pyrrolo[2,1-f][1,2,4]triazin-7-yl]-2-chloro-N-[(3R,4S)-4-fluoro-1-(1-fluorocyclopropanecarbonyl)pyrrolidin-3-yl]benzamide]", "IC50": 0.0081}
{"smiles": "Cc1ncc(-c2cc(C(F)(F)F)c3c(N)ncnn23)cc1C(=O)NCCN1CCC(c2ccccc2)C1", "note": "(stereo not shown) [Example 178, 5-[4-amino-5-(trifluoromethyl)pyrrolo[2,1-f][1,2,4]triazin-7-yl]-2-methyl-N-[2-(3-phenylpyrrolidin-1-yl)ethyl]pyridine-3-carboxamide]", "IC50": 0.33}
{"smiles": "COc1ncc(-c2cc(C(F)(F)F)c3c(N)ncnn23)cc1C(=O)N[C@@H]1CN(C(=O)OC2CCCCC2)C[C@@H]1F", "note": "[Example 1442, cyclohexyl (3R,4S)-3-{5-[4-amino-5-(trifluoromethyl)pyrrolo[2,1-f][1,2,4]triazin-7-yl]-2-methoxypyridine-3-amido}-4-fluoropyrrolidine-1-carboxylate]", "IC50": 0.016}
{"smiles": "COc1ncc(-c2cc(C(F)(F)F)c3c(N)ncnn23)cc1C(=O)N[C@@H]1CN(S(=O)(=O)C2CC2)C[C@@H]1F", "note": "[Example 1461, 5-[4-amino-5-(trifluoromethyl)pyrrolo[2,1-f][1,2,4]triazin-7-yl]-N-[(3R,4S)-1-(cyclopropanesulfonyl)-4-fluoropyrrolidin-3-yl]-2-methoxypyridine-3-carboxamide]", "IC50": 0.032}
{"smiles": "COc1ncc(-c2cc(C(F)(F)F)c3c(N)ncnn23)cc1C(=O)NCCC(C)(O)c1ccc(Cl)cc1", "note": "(stereo not shown) [Example 145, 5-[4-amino-5-(trifluoromethyl)pyrrolo[2,1-f][1,2,4]triazin-7-yl]-N-[3-(4-chlorophenyl)-3-hydroxybutyl]-2-methoxypyridine-3-carboxamide]", "IC50": 0.153}
{"smiles": "COc1ncc(-c2cc(COC(C)C)c3c(N)ncnn23)cc1C(=O)N[C@@H]1CN(C(=O)C2CC(F)(F)C2)C[C@@H]1F", "note": "[Example 491, 5-{4-amino-5-[(propan-2-yloxy)methyl]pyrrolo[2,1-f][1,2,4]triazin-7-yl}-N-[(3R,4S)-1-(3,3-difluorocyclobutanecarbonyl)-4-fluoropyrrolidin-3-yl]-2-methoxypyridine-3-carboxamide]", "IC50": 0.0052}
{"smiles": "COc1ncc(-c2cc(C(F)(F)F)c3c(N)ncnn23)cc1C(=O)NC1CN(Cc2ccc(OC(F)(F)F)c(F)c2)CC1F", "note": "(racemic) [Example 236, 5-[4-amino-5-(trifluoromethyl)pyrrolo[2,1-f][1,2,4]triazin-7-yl]-N-(4-fluoro-1-{[3-fluoro-4-(trifluoromethoxy)phenyl]methyl}pyrrolidin-3-yl)-2-methoxypyridine-3-carboxamide]", "IC50": 0.21}
{"smiles": "[2H]C([2H])([2H])Oc1ncc(-c2cc(CN3CC(F)(F)C3)c3c(N)ncnn23)cc1C(=O)N[C@@H]1CN(C(=O)C(C)C)C[C@@H]1F", "note": "[Example 1848, 5-(4-amino-5-((3,3-difluoroazetidin-1-yl)methyl)pyrrolo[2,1-f][1,2,4]triazin-7-yl)-N-((3R,4S)-4-fluoro-1-isobutyrylpyrrolidin-3-yl)-2-(methoxy-d3)nicotinamide]", "IC50": 0.00054}
{"smiles": "Nc1ncnn2c(-c3ccc(Cl)c(C(=O)N[C@@H]4CN(C(=O)c5cscn5)C[C@@H]4F)c3)cc(C(F)(F)F)c12", "note": "[Example 946, 5-[4-amino-5-(trifluoromethyl)pyrrolo[2,1-f][1,2,4]triazin-7-yl]-2-chloro-N-[(3R,4S)-4-fluoro-1-(1,3-thiazole-4-carbonyl)pyrrolidin-3-yl]benzamide]", "IC50": 0.065}
{"smiles": "COc1ncc(-c2cc(CN3CCCCC3)c3c(N)ncnn23)cc1C(=O)N[C@@H]1CN(C(=O)[C@@](C)(O)C(F)(F)F)C[C@@H]1F", "note": "[Example 1583, 5-{4-amino-5-[(piperidin-1-yl)methyl]pyrrolo[2,1-f][1,2,4]triazin-7-yl}-N-[(3R,4S)-4-fluoro-1-[(2R)-3,3,3-trifluoro-2-hydroxy-2-methylpropanoyl]pyrrolidin-3-yl]-2-methoxypyridine-3-carboxamide]", "IC50": 0.0013}
{"smiles": "Nc1ncnn2c(-c3cncc(C(=O)N[C@@H]4CN(C(=O)C5CC(F)(F)C5)C[C@@H]4F)c3)cc(C(F)(F)F)c12", "note": "[Example 282, 5-[4-amino-5-(trifluoromethyl)pyrrolo[2,1-f][1,2,4]triazin-7-yl]-N-[(3R,4S)-1-(3,3-difluorocyclobutanecarbonyl)-4-fluoropyrrolidin-3-yl]pyridine-3-carboxamide]", "IC50": 0.429}
{"smiles": "CCC(O)(C(=O)N1C[C@H](F)[C@H](NC(=O)c2cc(-c3cc(C(F)(F)F)c4c(N)ncnn34)cc(F)c2Cl)C1)C(F)(F)F", "note": "(stereo partly drawn) [Example 1326, 5-[4-amino-5-(trifluoromethyl)pyrrolo-[2,1-f][1,2,4]triazin-7-yl]-2-chloro-3-fluoro-N-[(3R,4S)-4-fluoro-1-[2-hydroxy-2-(trifluoromethyl)butanoyl]-pyrrolidin-3-yl]benzamide]", "IC50": 0.0043}
{"smiles": "Nc1ncnn2c(-c3cc(C(=O)N[C@@H]4CN(C(=O)C5CC5(F)F)C[C@@H]4F)ccc3F)cc(C(F)(F)F)c12", "note": "(stereo partly drawn) [Example 423, 3-[4-amino-5-(trifluoromethyl)pyrrolo [2,1-f][1,2,4]triazin-7-yl]-N-[(3R,4S)-1-(2,2-difluorocyclopropanecarbonyl)-4-fluoropyrrolidin-3-yl]-4-fluoro-benzamide]", "IC50": 0.047}
{"smiles": "COc1ncc(-c2cc(C(F)(F)F)c3c(N)ncnn23)cc1C(=O)NC1CN(C(=O)c2ccc(F)cc2)CC1F", "note": "(stereo not shown) [Example 27, 5-[4-amino-5-(trifluoromethyl)pyrrolo[2,1-f][1,2,4]triazin-7-yl]-N-[4-fluoro-1-(4-fluorobenzoyl)pyrrolidin-3-yl]-2-methoxypyridine-3-carboxamide]", "IC50": 0.099}
{"smiles": "COc1ncc(-c2cc(C(F)(F)F)c3c(N)ncnn23)cc1C(=O)NC1CN(C2CCCC2)CC1F", "note": "(racemic) [Example 199, 5-[4-amino-5-(trifluoromethyl)pyrrolo[2,1-f][1,2,4]triazin-7-yl]-N-(1-cyclopentyl-4-fluoropyrrolidin-3-yl)-2-methoxypyridine-3-carboxamide]", "IC50": 0.054}
{"smiles": "COc1ncc(-c2cc(C(F)(F)F)c3c(N)ncnn23)cc1C(=O)NC1CN(Cc2nnc(C3CC3)s2)CC1F", "note": "(racemic) [Example 207, 5-[4-amino-5-(trifluoromethyl)pyrrolo[2,1-f][1,2,4]triazin-7-yl]-N-{1-[(5-cyclopropyl-1,3,4-thiadiazol-2-yl)methyl]-4-fluoropyrrolidin-3-yl}-2-methoxypyridine-3-carboxamide]", "IC50": 0.144}
{"smiles": "Nc1ncnn2c(-c3ccc(F)c(C(=O)N[C@@H]4CN(C(=O)C5CCC(F)(F)CC5)C[C@@H]4F)c3F)cc(C(F)(F)F)c12", "note": "[Example 731, 3-[4-amino-5-(trifluoromethyl)pyrrolo[2,1-f][1,2,4]triazin-7-yl]-N-[(3R,4S)-1-(4,4-difluorocyclohexanecarbonyl)-4-fluoropyrrolidin-3-yl]-2,6-difluorobenzamide]", "IC50": 0.253}
{"smiles": "COc1ncc(-c2cc(C(F)(F)F)c3c(N)ncnn23)cc1C(=O)N[C@@H]1CN(S(=O)(=O)c2ccccc2C)C[C@@H]1F", "note": "[Example 1476, 5-[4-amino-5-(trifluoromethyl)pyrrolo[2,1-f][1,2,4]triazin-7-yl]-N-[(3R,4S)-4-fluoro-1-(2-methylbenzenesulfonyl)pyrrolidin-3-yl]-2-methoxypyridine-3-carboxamide]", "IC50": 0.077}
{"smiles": "Nc1ncnn2c(-c3ccc(C(F)(F)F)c(C(=O)N[C@@H]4CN(C(=O)C5CC(F)(F)C5)C[C@@H]4F)c3)cc(C(F)(F)F)c12", "note": "[Example 892, 5-[4-amino-5-(trifluoromethyl)pyrrolo[2,1-f][1,2,4]triazin-7-yl]-N-[(3R,4S)-1-(3,3-difluorocyclobutanecarbonyl)-4-fluoropyrrolidin-3-yl]-2-(trifluoromethyl)benzamide]", "IC50": 0.028}
{"smiles": "COc1ncc(-c2cc(C(F)(F)F)c3c(N)ncnn23)cc1C(=O)N[C@@H]1CN(C(=O)CC2CC(F)(F)C2)C[C@@H]1F", "note": "[Example 1202, 5-[4-amino-5-(trifluoromethyl)pyrrolo[2,1-f][1,2,4]triazin-7-yl]-N-[(3R,4S)-1-[2-(3,3-difluorocyclobutyl)acetyl]-4-fluoropyrrolidin-3-yl]-2-methoxypyridine-3-carboxamide]", "IC50": 0.04}
{"smiles": "COc1ncc(-c2cc(C(F)(F)F)c3c(N)ncnn23)cc1C(=O)NCCC(C)c1ccccc1", "note": "(stereo not shown) [Example 109, 5-[4-amino-5-(trifluoromethyl)pyrrolo[2,1-f][1,2,4]triazin-7-yl]-2-methoxy-N-(3-phenylbutyl)pyridine-3-carboxamide]", "IC50": 0.0097}
{"smiles": "Cc1ccc(-c2cc(C(F)(F)F)c3c(N)ncnn23)cc1C(=O)N[C@@H]1CN(C(=O)c2ccncc2)C[C@@H]1F", "note": "[Example 1018, 5-[4-amino-5-(trifluoromethyl)pyrrolo[2,1-f][1,2,4]triazin-7-yl]-N-[(3R,4S)-4-fluoro-1-(pyridine-4-carbonyl)pyrrolidin-3-yl]-2-methylbenzamide]", "IC50": 0.0093}
